Laboratory results reported in the supplement of paper PMC10338343.
± gives the standard deviation. The entries are a selection whose mix differs from that of the whole data set.

Tested on: MIWI (PIWIL1) piRISC loaded with L1MC piRNA (30 nt)
Assay: pre-steady-state target cleavage rate (min^-1); MIWI and MILI are mouse PIWI proteins and EfPiwi is from a freshwater sponge; tags in brackets are library labels; higher = faster piRNA-guided slicing of the target
Details: guide: L1MC piRNA 5'p-UAACUAAAUACUAUGCAAGCUGUAGGUCCU
Outline: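 In Cleave-'n-Seq, a transcribed, DNA-blocked target RNA library (0.1 nM) was combined with 1 nM active affinity-purified piRISC bearing one synthetic guide, with or without 500 nM GTSF1 partner protein. Reactions ran in HEPES–potassium acetate buffer at 33 °C for 0–8 or 0–960 min. Uncleaved targets were sequenced and normalised to depth and to weakly complementary targets, three trials were pooled, and k3 was capped at 0.0001 min^-1. The pre-steady-state cleavage rate was obtained by fitting a burst-and-steady-state model.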

[1] = auxiliary factor: 500 nM mouse GTSF1
[2] = auxiliary factor: none (no GTSF1)

Sequence	pre-steady-state target cleavage rate [1]	pre-steady-state target cleavage rate [2]
UCGUCCUACAGCUUGGAUAGUAUUUAGUUA	1.56 ± 0.048	0.0586 ± 0.0084
UCGACCUACAGCUUGCAUAGUAUUAUCUUA	0.32 ± 0.037	0.00466 ± 0.0026
UGGACCUACAGCUUACAUAGUAUUUAGUUA	1.53 ± 0.079	0.0508 ± 0.0082
UCCUGGAACUCCUUGCAUAGUAUUUAGUAA	0.183 ± 0.022	0.00322 ± 0.0032
UCCUGCUACAGCUUGCAUAGUAUUUAGAUA	0.337 ± 0.04	0.0122 ± 0.003
UCCUGGUAGAGCUUGCUUAGUAUUUAGUUA	0.858 ± 0.045	0.0309 ± 0.0076
UCGACCUACAGCUUGCAUAGUAUUAAGUUA	0.761 ± 0.04	0.0317 ± 0.0061
UCGACCUACAGCUUGCAUAGUAUGUAGUUA	0.375 ± 0.059	0.0136 ± 0.0032
UCCUGGAUGUGCUUGCAUAGUACUUUAGUUA	0.0111 ± 0.0044	0.00751 ± 0.0028
UCCUGGAACAGCUUGCAUACUAUUUAGUUA	0.321 ± 0.025	0.0268 ± 0.0062
UCCUGGAUGAGCUUGCUUAGUAAUUAGUUA	0.0955 ± 0.011	0.007 ± 0.0037
UCCUCCAACAGCUUGCAUAGUUUUUAGUUA	0.366 ± 0.024	0.0393 ± 0.0083
UCCUGGUACAGCUUGAUAGUAUUUAGUUA	0.217 ± 0.022	0.00692 ± 0.0028
UCCUCCAACAGCUUGGAUAGUAUUUAGUUA	1.3 ± 0.053	0.0527 ± 0.0092
UCCUGGAACAGCUUGCAUAGUUUUUAGAUA	0.0774 ± 0.017	0.0136 ± 0.0035
UCCUGGUACAGCUUGCAUAGUAUUUAGUAUA	0.473 ± 0.052	0.00784 ± 0.0025
UCGACCUACACCUUGCUUAGUAUUUAGUUA	1.07 ± 0.052	0.0351 ± 0.006
UCCUGGAUGUGCUUGCUUAGAAUUUAGUUA	0.00451 ± 0.0036	0.00226 ± 0.0022
UGGAGGAACAGCUUGCAUAGUAUUUACAAA	0.216 ± 0.034	0.00526 ± 0.0019
UCCACCUACACCUUGCAUAGUAUUUACUUA	0.302 ± 0.054	0.0244 ± 0.0043
UCCUGGAUCAGCUUGCAUAGUAUUAUGAAA	0.126 ± 0.027	0.00315 ± 0.0024
UGGUCCUACAGCUUGCUUAGUAUUUAGUUA	1.21 ± 0.035	0.0478 ± 0.0087
UCCUGCUACAGCUUGCAUAGUAUUUAGAUUA	0.237 ± 0.035	0.0132 ± 0.0031
UCCUCCUAGUGCUUGCAUAGUAUUUAGAAA	0.0872 ± 0.018	0.00228 ± 0.002
UGGACCUACAGCUUGCAUUGUUUUUAGUUA	0.0869 ± 0.01	0.00751 ± 0.0024
UCGGCCUACAGCUUGCAUAGUAUUUAGUUA	1.21 ± 0.05	0.0767 ± 0.015
UCGACCUACUGCUUGCAUAGUAUUUUCAAA	0.184 ± 0.023	0.00371 ± 0.0019

Sequence	pre-steady-state target cleavage rate [1]	pre-steady-state target cleavage rate [2]
UCCUGGAACAGCAUGCAUAGUAUUUAGAAA	0.398 ± 0.054	0.00322 ± 0.0031
UCCUGGUACCAGCUUGCAUAGUAUUUAGUUA	0.566 ± 0.079	0.0203 ± 0.0046
UCCUGGAUGAGCAUGCAUAGUAUUUAGAUA	0.252 ± 0.034	0.00417 ± 0.0028
UCGACCUACAGCUUGCAUAGUAUUUUCUUA	0.331 ± 0.037	0.0352 ± 0.0091
UCCUGGAUCAGCUUGCAAAGUAUUUAGUUA	1.16 ± 0.065	0.0381 ± 0.012
UCCUGGAUCAGCUAGCAUAGAAUUUAGUUA	0.138 ± 0.013	0.00723 ± 0.0031
UGGACCAACAGCUUGCAUUGUAUUUAGUUA	0.967 ± 0.037	0.0357 ± 0.0087
UCCACCUACAGCUUGCAUAGUAUAUAGUAA	0.304 ± 0.048	0.00507 ± 0.0024
UGGACCUACAGCUUGCAUAGUACUUAGUUA	1.09 ± 0.074	0.0405 ± 0.0076
UCCUGGUACAGCUUGCAUAGAAUUAAGUUA	0.219 ± 0.04	0.00659 ± 0.0019
UCCUGGAUGUGCUUGCAUAGAAUUUAGAAA	0.0056 ± 0.0042	0.00317 ± 0.0024
UCCUGGAACAGCUUGCAUAGAAUUUAGUAA	0.25 ± 0.045	0.014 ± 0.0044
UCCUGGAUCAAGCUUGCAUAGUAUUUAGUUA	1.25 ± 0.063	0.0662 ± 0.014
AGGACCUACAGCUUGCAUAGUAUUUAGUAA	1.07 ± 0.087	0.0842 ± 0.018
UCCUCCUACAGCAUGCAUAGUUUUUAGUUA	0.332 ± 0.024	0.0106 ± 0.0017
UCGAGGAACAGCUUGCAUAGUAUUUAGAAA	0.572 ± 0.059	0.00692 ± 0.0027
UCCUGCUACAGCAUGCAUAGUAUUUUGUUA	0.664 ± 0.07	0.00787 ± 0.0017
UCCACCUACAGCUAGGAUAGUAUUUAGUUA	1.21 ± 0.039	0.00711 ± 0.002
UCCUCCUACAGGUUGCAUAGUAUUUAGUAA	0.845 ± 0.061	0.0122 ± 0.0028
UCCUGGUACAGCUUGCAUAGUUUAUAGUUA	0.0594 ± 0.017	0.0135 ± 0.004
UCCUGGAAGUGCUUGCAUAGUAUUUAGUUA	0.393 ± 0.025	0.0331 ± 0.0076
UCCUCCUACAGCUUCCAUAGUAUUUAGUUA	0.0782 ± 0.022	0.00302 ± 0.0024
UGGACCUACAGCUUGCUUAGUAUUUAGUAA	1.03 ± 0.073	0.0335 ± 0.0097
UCCUGGAACAGCUGUGCAUAGUAUUUAGUUA	0.954 ± 0.048	0.0465 ± 0.012
UCCUGCUACAGCUUCCAAAGUAUUUAGUUA	0.35 ± 0.033	0.00272 ± 0.0024
UCCUGGAUGAGCUUGCAUAGUAUUUAGUUG [g2:g21:cont:t1G]	0.624 ± 0.056	0.0413 ± 0.0092
AGGACCUACAGCUUGCAGAGUAUUUAGUUA	0.984 ± 0.07	0.045 ± 0.012
